Measurements from the supplement of paper PMC4967469.
Lines with a small IC50 respond at low doses; a limit (>, <) means that the fit lies beyond the doses tested. For AUC the same curve is integrated over the 256-fold range of doses and scaled to a fraction; the more sensitive the line, the further below 1. A top dose marked as inferred was derived from the fitted curves, not read from the paper.

Compound: O=C1NC(=O)/C(=C\c2ccc3nccnc3c2)S1 [AS605240]
Experiment: Viability of human cancer cell lines after 72 h of drug (GDSC screen)
Settings: top dose inferred
Protocol: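 Human cancer cell lines in 384-well plates, medium with 10% serum, drug for 72 h over a 256-fold dose range (nine 2-fold or five 4-fold steps up to the top dose). Adherent lines were fixed and stained with the nucleic acid dye Syto60, suspension lines read with resazurin; signal relative to control wells, capped at 0 and 100%. One two-parameter sigmoid per drug and line, fitted in a mixed model over all curves with the slope shared within a line.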

| Cell Line | AUC | IC50 [µM] |
| --- | --- | --- |
| ES-2 (ovary, adherent, top dose 20 µM) | 0.895 | 19.2 |
| RPMI-2650 (head and neck, adherent, top dose 20 µM) | 0.911 | > 20 |
| NCI-H209 (small cell lung carcinoma, suspension, top dose 20 µM) | 0.955 | > 20 |
| HH (T-cell leukaemia, suspension, top dose 20 µM) | 0.775 | 10.7 |
| LP-1 (myeloma, suspension, top dose 20 µM) | 0.886 | 15.6 |
| DAN-G (pancreas, adherent, top dose 20 µM) | 0.901 | > 20 |
| HCC1569 (breast, adherent, top dose 20 µM) | 0.876 | > 20 |
| EN (endometrium, adherent, top dose 20 µM) | 0.968 | > 20 |
| JHH-7 (liver, adherent, top dose 20 µM) | 0.987 | > 20 |
| UACC-812 (breast, adherent, top dose 20 µM) | 0.927 | > 20 |
| RT4 (bladder, adherent, top dose 20 µM) | 0.987 | > 20 |
| JJN-3 (haematopoietic neoplasm, suspension, top dose 20 µM) | 0.847 | 10.9 |
| Mewo (melanoma, adherent, top dose 20 µM) | 0.985 | > 20 |
| NCI-H1693 (lung adenocarcinoma, adherent, top dose 20 µM) | 0.922 | > 20 |
| DMS-79 (small cell lung carcinoma, suspension, top dose 20 µM) | 0.949 | > 20 |
| SAS (head and neck, adherent, top dose 20 µM) | 0.78 | 9.19 |
| NCI-H1944 (lung adenocarcinoma, adherent, top dose 20 µM) | 0.626 | 2.84 |
| JEG-3 (urogenital system, adherent, top dose 20 µM) | 0.959 | > 20 |
| YMB-1-E (breast, adherent, top dose 20 µM) | 0.945 | > 20 |
| NKM-1 (acute myeloid leukaemia, suspension, top dose 20 µM) | 0.53 | 1.51 |
| IST-MES1 (mesothelioma, adherent, top dose 20 µM) | 0.972 | > 20 |

| Cell Line | AUC | IC50 [µM] |
| --- | --- | --- |
| SW900 (lung squamous cell carcinoma, adherent, top dose 20 µM) | 0.768 | 8.7 |
| MFE-296 (endometrium, adherent, top dose 20 µM) | 0.959 | > 20 |
| NCI-H1651 (lung adenocarcinoma, adherent, top dose 20 µM) | 0.978 | > 20 |
| NY (osteosarcoma, adherent, top dose 20 µM) | 0.976 | > 20 |
| NCI-H226 (lung squamous cell carcinoma, adherent, top dose 20 µM) | 0.714 | 5.2 |
| IHH-4 (thyroid, semi-adherent, top dose 20 µM) | 0.988 | > 20 |
| HOS (osteosarcoma, adherent, top dose 20 µM) | 0.983 | > 20 |
| MDA-MB-415 (breast, adherent, top dose 20 µM) | 0.962 | > 20 |
| KMRC-20 (kidney, adherent, top dose 20 µM) | 0.968 | > 20 |
| HL-60 (acute myeloid leukaemia, suspension, top dose 20 µM) | 0.73 | 5.2 |
| UM-UC-3 (bladder, adherent, top dose 20 µM) | 0.873 | 17.2 |
| KYSE-220 (oesophagus, adherent, top dose 20 µM) | 0.752 | 6.98 |
| huH-1 (liver, adherent, top dose 20 µM) | 0.984 | > 20 |
| OVCAR-3 (ovary, adherent, top dose 20 µM) | 0.974 | > 20 |
| RERF-LC-Sq1 (lung squamous cell carcinoma, adherent, top dose 20 µM) | 0.839 | > 20 |
| SF268 (glioma, adherent, top dose 20 µM) | 0.826 | 13.4 |
| T47D (breast, adherent, top dose 20 µM) | 0.729 | 8.09 |
| OVCA420 (ovary, adherent, top dose 20 µM) | 0.97 | > 20 |
| OCI-AML2 (acute myeloid leukaemia, suspension, top dose 20 µM) | 0.061 | < 0.0781 |
| NCI-H2052 (mesothelioma, adherent, top dose 20 µM) | 0.981 | > 20 |
